Sequences and labels used below:
B1: RBMS1, P29558 (protein)
chain: MGKVWKQQMYPQYATYYYPQYLQAKQSLVPAHPMAPPSPSTTSSNNNSSSSSNSGWDQLSKTNLYIRGLPPHTTDQDLVKLCQPYGKIVSTKAILDKTTNKCKGYGFVDFDSPAAAQKAVSALKASGVQAQMAKQQEQDPTNLYISNLPLSMDEQELENMLKPFGQVISTRILRDSSGTSRGVGFARMESTEKCEAVIGHFNGKFIKTPPGVSAPTEPLLCKFADGGQKKRQNPNKYIPNGRPWHREGEVRLAGMTLTYDPTTAAIQNGFYPSPYSIATNRMITQTSITPYIASPVSAYQVQSPSWMQPQPYILQHPGAVLTPSMEHTMSLQPASMISPLAQQMSHLSLGSTGTYMPATSAMQGAYLPQYAHMQTTAVPVEEASGQQQVAVETSNDHSPYTFQPNK
B2: ARMCX5, Q6P1M9 (protein)
chain: MVDSGTEARARGKAEAGLQDGISGPATARVNGKTQAEAVAEAELKTESVTQAKAGDGAMTRTHTVTYREAMAVTREVIKVEDTTKTRVMVETKTKPLAERSIVPQTKSKAMPMSRVSTVTKSEVKVVAVIEANIRSYAKSHDKANTGSRPDRREETSIGMKSSDEDEENICSWFWTGEEPSVGSWFWPEEETSLQVYKPLPKIQEKPKPTHKPTLTIKQKVIAWSRARYIVLVPVEGGEQSLPPEGNWTLVETLIETPLGIRPLTKIPPYHGPYYQTLAEIKKQIRQREKYGPNPKACHCKSRGFSLEPKEFDKLVALLKLTKDPFIHEIATMIMGISPAYPFTQDIIHDVGITVMIENLVNNPNVKEHPGALSMVDDSSESSEEPKSGESYIHQVCKGIISCPLNSPVQLAGLKLLGHLSIKFEDHYVITSYIPDFLTLLNKGSVKTKFYVLKVFSCLSKNHANTRELISAKVLSSLVAPFNKNESKANILNIIEIFENINFQFKTKAKLFTKEKFTKSELISIFQEAKQFGQKLQDLAEHSDPEVRDKVIRLILKL
B3: ENC1, O14682 (protein)
chain: MSVSVHENRKSRASSGSINIYLFHKSSYADSVLTHLNLLRQQRLFTDVLLHAGNRTFPCHRAVLAACSRYFEAMFSGGLKESQDSEVNFDNSIHPEVLELLLDYAYSSRVIINEENAESLLEAGDMLEFQDIRDACAEFLEKNLHPTNCLGMLLLSDAHQCTKLYELSWRMCLSNFQTIRKNEDFLQLPQDMVVQLLSSEELETEDERLVYESAINWISYDLKKRYCYLPELLQTVRLALLPAIYLMENVAMEELITKQRKSKEIVEEAIRCKLKILQNDGVVTSLCARPRKTGHALFLLGGQTFMCDKLYLVDQKAKEIIPKADIPSPRKEFSACAIGCKVYITGGRGSENGVSKDVWVYDTLHEEWSKAAPMLVARFGHGSAELKHCLYVVGGHTAATGCLPASPSVSLKQVEHYDPTINKWTMVAPLREGVSNAAVVSAKLKLFAFGGTSVSHDKLPKVQCYDQCENRWTVPATCPQPWRYTAAAVLGNQIFIMGGDTEFSACSAYKFNSETYQWTKVGDVTAKRMSCHAVASGNKLYVVGGYFGIQRCKTLDCYDPTLDVWNSITTVPYSLIPTAFVSTWKHLPS
B4: IGSF6, O95976 (protein)
chain: MGTASRSNIARHLQTNLILFCVGAVGACTLSVTQPWYLEVDYTHEAVTIKCTFSATGCPSEQPTCLWFRYGAHQPENLCLDGCKSEADKFTVREALKENQVSLTVNRVTSNDSAIYICGIAFPSVPEARAKQTGGGTTLVVREIKLLSKELRSFLTALVSLLSVYVTGVCVAFILLSKSKSNPLRNKEIKEDSQKKKSARRIFQEIAQELYHKRHVETNQQSEKDNNTYENRRVLSNYERP

This is one part of the list. Interaction screen of human proteins with wild-type SARS-CoV-2 proteins by split-DHFR complementation in yeast, 1 µg/mL methotrexate. Value = fitness of the pair (three or more lineages) minus that of the viral protein without a human partner, on a scale set by negative (0) and fused positive (1) controls, mean of up to three cultures; higher = more likely to interact. Active = false discovery rate below 0.05 (one-sided t-test) in at least one culture. Nearly all pairs are not hits, and differences among them are mostly noise (correlation between cultures about 0.3); most hits were seen in one culture only. Human sequences are the Swiss-Prot entries looked up by gene name; the clone may be another isoform. NSP2 values were corrected by the authors for a growth advantage. Listed are human proteins with a hit and a random twelfth of the others.

The target of one test is SARS-CoV-2 NSP13. Put plainly: yeast fitness gain over the viral ORF with no human partner (scaled fitness); higher = more likely to interact. How it is done: (§1)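 Split mouse DHFR complementation in pooled diploid yeast: human ORFeome clones carry one fragment and viral ORFs the other; barcoded lineages compete in 1 µg/mL methotrexate and fitness is read by barcode sequencing in up to three cultures.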
B1: the yeast fitness gain was inactive: 0.0297.
Take B2: the yeast fitness gain is inactive: -0.119.
Same read-out and setting: the same measure for B3: inactive: 0.032; for B4: inactive: 0.0151.

In another test the target is SARS-CoV-2 NSP2. The description is as above. As for the experimental part:
as §1
For B1, the yeast fitness gain was inactive: 0.0156.
In the case of B3, the yeast fitness gain was inactive: -0.117.
With B4, the yeast fitness gain is inactive: -0.0628.

For another test, the target named is SARS-CoV-2 NSP5. Described as above. How it is done:
as §1
With B1, the yeast fitness gain was inactive: -0.109.

The next test has as its target SARS-CoV-2 ORF6. Described as above. As for the experimental part: as §1
As to B1, the yeast fitness gain is inactive: -0.117.
Consider B3, for which the yeast fitness gain was inactive: -0.227.
Still for that read-out and setting: with B4 the figure was inactive: -0.0192.

The next test deals with SARS-CoV-2 ORF7A. The test is described as above. As for the experimental part:
as §1
Take B1: the yeast fitness gain is inactive: 0.0305.

A further test has as its target SARS-CoV-2 ORF9B. The test is described as above. As for the experimental part:
as §1
For B1, the yeast fitness gain is inactive: -0.0379.
With B2, the yeast fitness gain was inactive: 0.0259.
With B3, the yeast fitness gain was inactive: 0.0295.

The next test deals with SARS-CoV-2 NSP15. The description is as above. How it is done:
as §1
As for B2, the yeast fitness gain was inactive: -0.126.

The target of another test is SARS-CoV-2 ORF7B. Described as above. How it is done: as §1
As for B2, the yeast fitness gain is inactive: 0.0704.
For B4, the yeast fitness gain is inactive: -0.143.

A further test has as its target SARS-CoV-2 ORF10. The description is as above. As for the experimental part: as §1
In the case of B4, the yeast fitness gain was inactive: 0.00999.

The target of the next test is SARS-CoV-2 ORF3B. The test is described as above. How it is done:
as §1
With B4, the yeast fitness gain was inactive: 0.0466.

Values taken from the supplement of paper PMC11741623.
